Experimental data taken from PMC7442819, “Taf14 recognizes a common motif in transcriptional machineries and facilitates their clustering by phase separation” (Nature Communications, 2020).
Results are given in words; binding and its absence hold for the method and conditions named. For some of these results: In cells and extracts the contact can be indirect. Some binding calls cover weakened binding; strength is not graded here. One block for each molecule: values may come before it.

Chains of the proteins cited; added tags and fusions are not shown. Residues count along the entry.
UniProt P53115, residues 368-390: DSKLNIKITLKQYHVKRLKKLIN
UniProt P18480, residues 771-800: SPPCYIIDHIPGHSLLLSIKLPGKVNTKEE

Assays:
[1] = biological target: Taf14ET (Taf14_(174–244)) (Saccharomyces cerevisiae) (UniProt P35189); assay: condition: 1.0 mM peptide in the syringe, 0.1 mM Taf14ET in the cell; ITC; peptide at 1.0 mM in the syringe titrated into Taf14ET at 0.1 mM in the cell; 20 mM phosphate pH 7.0, 100 mM NaCl, 2 mM DTT; 25 °C; one binding site model; both purified
[2] = biological target: Taf14-HA (Saccharomyces cerevisiae) (UniProt P35189); assay: co-IP; yeast lysate, HA beads precipitate Taf14-HA, blot for TAP; 100 mM HEPES-KOH pH 7.9, 100 mM potassium acetate, 10 mM magnesium acetate; 4 °C, 3 h
[3] = biological target: T1, GST-Taf14_(174–244) (Saccharomyces cerevisiae, UniProt P35189 174-244); assay: pull-down; GST-tagged ET domain (25 μg) and binding partner (50 μg) with glutathione–Sepharose 4B beads; 25 mM Tris-HCl pH 8.0, 150 mM NaCl, 2 mM DTT; 4 °C, 3 h; SDS-PAGE; both purified
T1 construct: Taf14, Saccharomyces cerevisiae, ET domain, residues 174-244; also called GST-Taf14ET; GST-tagged Taf14ET; source: E. coli Rosetta, purified (Ni-NTA, eluted as GST-fused protein, SEC); not shown: 6*His-GST, N-terminal, kept
T1 sequence (looked up): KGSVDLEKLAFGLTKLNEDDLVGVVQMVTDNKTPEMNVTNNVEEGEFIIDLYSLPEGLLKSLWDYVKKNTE

[4] = biological target: Taf14ET F220R/I222R (Saccharomyces cerevisiae) (UniProt P35189); assay: condition: 1.0 mM peptide in the syringe, 0.1 mM Taf14ET in the cell; ITC; peptide at 1.0 mM in the syringe titrated into Taf14ET at 0.1 mM in the cell; 20 mM phosphate pH 7.0, 100 mM NaCl, 2 mM DTT; 25 °C; one binding site model; both purified

Molecule: Sth1EBM L1204A/V1206A/I1208A/L1210A (Sth1^M4) (from UniProt P32597 1183-1240) (domain or fragment)
binding [1]: no binding

Molecule: Sth1^M4-TAP (from UniProt P32597 1-1359)
binding [2]: binds

Molecule: Sth1^WT-TAP (from UniProt P32597 1-1359)
binding [2]: binds

Molecule: bromodomain of Sth1 (Sth1_(1248–1359)) (from UniProt P32597 1248-1359) (domain or fragment)
binding [3]: no binding

Second part, the molecule after the results:

binding [3]: binds
Molecule: Sumo-fused Ino80_(368–390) (from UniProt P53115 368-390) (domain or fragment)

binding [3]: binds
Molecule: Sumo-fused Snf5_(771–800) (from UniProt P18480 771-800) (domain or fragment)

binding [4]: no binding
B1: Sth1EBM (Sth1_(1183–1240)) (domain or fragment, Saccharomyces cerevisiae, UniProt P32597 1183-1240, looked up)
chain: EVKSSSVEIINGSESKKKKPKLTVKIKLNKTTVLENNDGKRAEEKPESKSPAKKTAAK
notes: source: E. coli Rosetta, purified (Ni-NTA, on-beads digestion, SEC)
